According to the supplement of paper PMC10126150:
Values marked as one replicate rest on one cluster of the flow cell; about a third of the high ones do not repeat.

These sequences were tested on ATP (assay: switch fluorescence ratio, 500 uM ATP over buffer (Cy3 cluster intensity, sum of 5 cycles each) (fold (ratio)); higher = stronger signal-on switching upon ATP binding; sequences stand for … in TCGTCGGCAGCGTCAGATGTGTATAAGAGACAGTTTTTTTTTTTTTTTTTTTTTTTTT…TC). Conditions: aptamer strand: ATP DNA aptamer (quencher-CACCTGGGGGAGTATTGCGGAGGAAGG + anchor), 100 nM annealed; ATP concentration: 500 uM; one replicate.
Method in brief: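 Clusters carrying Cy3-labelled switching strands on a modified Illumina MiSeq flow-cell were annealed to 100 nM quencher-labelled ATP aptamer and imaged in selection buffer. They were imaged again after 15 min with 500 uM ATP at 22 °C, over five buffer/ATP cycles with NaOH stripping and re-annealing in between. For each cluster, the fluorescence ratio is the summed Cy3 intensity of the target cycles divided by that of the buffer cycles, averaged per switch-domain sequence. Clusters outside 100-1000 RFU were left out.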
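Further: ATP exposure 15 min at 22 °C before imaging.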

Row | Sequence | switch fluorescence ratio
1 | AGGCTCTGCT | 0.959
2 | AGGCTGAGGA | 0.964
3 | AGGCTGTAC | 1.47
4 | AGGCTGTAT | 1.02
5 | AGGCTTATG | 0.957
6 | AGGCTTCTC | 1.07
7 | AGGCTTTGAT | 0.979
8 | AGGGAAAAG | 0.98
9 | AGGGAAAGA | 1
10 | AGGGAAGGCC | 1.01
11 | AGGGAAGTAT | 1.06
12 | AGGGAATGCC | 1
13 | AGGGACAGAT | 1.01
14 | AGGGACGGTT | 0.967
15 | AGGGACGTGC | 0.946
16 | AGGGACGTGT | 1.02
17 | AGGGATTCCT | 1.02
18 | AGGGCAACTA | 1
19 | AGGGCATAGC | 1.01
20 | AGGGCATGTG | 1.01
21 | AGGGCCCAGC | 1
22 | AGGGCCGATC | 0.965
23 | AGGGCGGACG | 0.94
24 | AGGGGAACAG | 0.969
25 | AGGGGACAGA | 0.996
26 | AGGGGACCGT | 0.998

Row | Sequence | switch fluorescence ratio
27 | AGGGGACCT | 1.19
28 | AGGGGCAGTG | 0.99
29 | AGGGGCTAAC | 1.01
30 | AGGGGGAAAG | 0.986
31 | AGGGGGAGAC | 1.42
32 | AGGGGGATA | 1.03
33 | AGGGGGCAGT | 1.02
34 | AGGGGGTATA | 0.973
35 | AGGGGGTGG | 0.994
36 | AGGGGTCAA | 0.968
37 | AGGGGTCG | 1.02
38 | AGGGGTCTGG | 0.999
39 | AGGGGTTTA | 0.991
40 | AGGGTACCT | 1.19
41 | AGGGTAGAAA | 1.03
42 | AGGGTATAAT | 0.991
43 | AGGGTCAGTC | 1.01
44 | AGGGTCCAGC | 0.976
45 | AGGGTCTAGT | 1
46 | AGGGTCTTCC | 1.19
47 | AGGGTTAGG | 0.974
48 | AGGGTTCATT | 0.997
49 | AGGGTTCTG | 1.01
50 | AGGGTTTCGA | 1.03
51 | AGGTAAAAT | 0.971
52 | AGGTAAAATG | 0.955

Row | Sequence | switch fluorescence ratio
53 | AGGTACCAGG | 1.23
54 | AGGTACGTG | 0.981
55 | AGGTACTGGA | 1.03
56 | AGGTAGCAGA | 1
57 | AGGTAGCTGC | 1.04
58 | AGGTATTAAT | 1.05
59 | AGGTCAAACT | 1.01
60 | AGGTCAACGA | 0.994
61 | AGGTCACTTT | 1.01
62 | AGGTCAGAAA | 0.97
63 | AGGTCAGTGT | 0.974
64 | AGGTCGATAT | 0.972
65 | AGGTCGGTTT | 1.02
66 | AGGTCGTGCC | 1.02
67 | AGGTCTCCAG | 0.982
68 | AGGTCTGCG | 1.01
69 | AGGTCTGTCG | 1.02
70 | AGGTCTGTGC | 0.972
71 | AGGTCTGTGT | 0.954
72 | AGGTCTTTGA | 0.985
73 | AGGTGACGAC | 0.959
74 | AGGTGATCAG | 0.959
75 | AGGTGATGG | 1.02
76 | AGGTGATGTC | 1.18
77 | AGGTGCACCT | 1
78 | AGGTGCGTTT | 0.991

Row | Sequence | switch fluorescence ratio
79 | AGGTGGAGCT | 0.966
80 | AGGTGGATCT | 1.02
81 | AGGTGGTAGC | 0.978
82 | AGGTGTATCG | 0.959
83 | AGGTGTGCAT | 0.996
84 | AGGTGTGGCA | 0.986
85 | AGGTGTGTTT | 1.01
86 | AGGTGTTCTG | 0.956
87 | AGGTTACCTG | 1.03
88 | AGGTTATGAC | 1.01
89 | AGGTTATGAG | 1.01
90 | AGGTTCAGAG | 1.06
91 | AGGTTCCTAT | 0.991
92 | AGGTTCGTTT | 1.01
93 | AGGTTGAACT | 1
94 | AGGTTTAACG | 0.966
95 | AGGTTTAACT | 0.988
96 | AGGTTTGCAG | 1.06
97 | AGTAAACCCT | 1.2
98 | AGTAAATAAG | 1.01
99 | AGTAACTCGC | 0.975
100 | AGTAAGCTAG | 0.996
101 | AGTAAGGTAG | 1.01
102 | AGTAAGTAGT | 0.992
103 | AGTAAGTG | 1.02
104 | AGTAAGTTAA | 1.05

Row | Sequence | switch fluorescence ratio
105 | AGTACATCAA | 1.06
106 | AGTACCTAGA | 0.995
107 | AGTACCTTCA | 2.1
108 | AGTACGACCC | 1.88
109 | AGTACGGTCC | 1.04
110 | AGTACGTCCC | 1.04
111 | AGTACTATAT | 1.01
112 | AGTAGCAGGG | 1.04
113 | AGTAGCATGG | 1.03
114 | AGTAGCCACC | 1.04
115 | AGTAGCCCCG | 0.951
116 | AGTAGCTTGC | 1.03
117 | AGTAGGATTG | 1
118 | AGTAGGCGTT | 1.02
119 | AGTAGTCTGC | 1.04
120 | AGTAGTTGCT | 0.991
121 | AGTATACAGG | 0.938
122 | AGTATAGAG | 0.966
123 | AGTATAGGAG | 0.991
124 | AGTATCAATT | 0.983
125 | AGTATCATCG | 1.01
126 | AGTATGATAC | 1.08
127 | AGTATGCCGT | 1.02
128 | AGTATTCAG | 0.999
129 | AGTATTGTCA | 1.03
130 | AGTCACAGGC | 1.04

Row | Sequence | switch fluorescence ratio
131 | AGTCAGGAGA | 1.01
132 | AGTCATAGTA | 1.02
133 | AGTCATCCGT | 1.06
134 | AGTCATGAAC | 0.975
135 | AGTCATGATG | 1
136 | AGTCCACACG | 1.03
137 | AGTCCGGTGG | 1.11
138 | AGTCCGTAC | 1.31
139 | AGTCCGTTCA | 0.988
140 | AGTCCTATAA | 0.966
141 | AGTCCTCGCA | 2.88
142 | AGTCCTTGCC | 1.09
143 | AGTCGGCAGG | 1.02
144 | AGTCGGGTTA | 0.938
145 | AGTCGTCTAC | 0.985
146 | AGTCTACATT | 1.04
147 | AGTCTAGATT | 0.984
148 | AGTCTCACTT | 0.992
149 | AGTCTCAGG | 1.04
150 | AGTCTCCCCC | 1.79
151 | AGTCTCGGCG | 0.967
152 | AGTCTGTGGG | 1.01
153 | AGTGAACTCA | 1.03
154 | AGTGAATACG | 0.982
155 | AGTGACCCAG | 1
156 | AGTGAGATCA | 1.03

Row | Sequence | switch fluorescence ratio
157 | AGTGAGATTA | 0.989
158 | AGTGAGGCAG | 0.984
159 | AGTGAGTACG | 1.02
160 | AGTGATAGTT | 0.99
161 | AGTGATCTAG | 1.01
162 | AGTGATTTGA | 1.02
163 | AGTGCATAAT | 0.958
164 | AGTGCTAAGC | 0.963
165 | AGTGCTCTCG | 1
166 | AGTGGAAAGG | 0.995
167 | AGTGGACGCG | 0.873
168 | AGTGGACGT | 0.961
169 | AGTGGAGAGT | 0.974
170 | AGTGGAGTTT | 1.03
171 | AGTGGCGTTA | 0.997
172 | AGTGGCTGTT | 1.01
173 | AGTGGGACAA | 1.02
174 | AGTGGGTTAC | 0.976
175 | AGTGGTGTAT | 0.996
176 | AGTGTAACTG | 1.01
177 | AGTGTAGC | 1
178 | AGTGTGTCCC | 0.93
179 | AGTGTTAACA | 1.01
180 | AGTGTTAATA | 1.03
181 | AGTGTTAGGC | 1.02
182 | AGTTAAACCC | 1.06

Row | Sequence | switch fluorescence ratio
183 | AGTTAAATGG | 1.01
184 | AGTTAAGTCT | 0.998
185 | AGTTAATAG | 0.991
186 | AGTTACCCAC | 1.56
187 | AGTTAGTGCG | 0.993
188 | AGTTAGTTTC | 0.95
189 | AGTTATGGGT | 1.02
190 | AGTTATTATA | 1.01
191 | AGTTATTCGC | 0.994
192 | AGTTCAAATG | 0.976
193 | AGTTCAGAGA | 0.971
194 | AGTTCAGGCG | 0.938
195 | AGTTCGCTTA | 1
196 | AGTTCGTTCC | 1.31
197 | AGTTGAAGCT | 1.03
198 | AGTTGAATAC | 1.17
199 | AGTTGACAGT | 0.977
200 | AGTTGATAAT | 0.969
201 | AGTTGATGCT | 0.991
